According to the supplement of paper PMC6206098:
± gives the uncertainty stated by the source. The sequences are guide strands of siRNAs; only the seed at positions 2 to 7 varies.

What was measured:
H460 = assay: cell viability relative to lipid-only control; higher = less toxic; conditions: concentration: 10 nM; 96 h; Homo sapiens
M565 = assay: as above; conditions: concentration: 10 nM; 96 h; Mus musculus
HeyA8 = assay: as above; conditions: concentration: 10 nM; 96 h; Homo sapiens
3LL = assay: cell viability relative to siNT1 control; HeyA8 human ovarian and H460 human lung cancer; M565 mouse liver and 3LL mouse lung cancer; siNT1 is a non-toxic control siRNA; higher = less toxic; conditions: concentration: 10 nM; 96 h; Mus musculus
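Throughout, for cell viability relative to lipid-only control: reverse lipid transfection in 384-well plates, in triplicate, of duplexes on a non-toxic 19mer backbone with passenger strand 2′-O-methylated at positions 1 and 2, luminescence viability read-out.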
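Throughout, for cell viability relative to siNT1 control: Luminescence-based viability of cells reverse transfected in 384-well plates with lipid-complexed siRNAs built on a non-toxic 19mer backbone whose passenger strand carries 2′-O-methyl groups at positions 1 and 2, triplicates.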

Row | Sequence | cell viability (H460) [%] | cell viability (M565) [%] | cell viability (HeyA8) [%] | cell viability (3LL) [%]
1 | UAGUGGAACAUGUAAACCAAA | 51.4 ± 10 | 59.7 ± 2.6 | 30.3 ± 0.96 | 91.2 ± 6.7
2 | UUAGGCAACAUGUAAACCAAA | 83.2 ± 13 | 46.9 ± 5.8 | 77.8 ± 4.5 | 81.9 ± 5
3 | UGUUAAGACAUGUAAACCAAA | 64.7 ± 6.7 | 71.4 ± 7.8 | 67.3 ± 5.8 | 86.6 ± 5.5
4 | UUGGUUUACAUGUAAACCAAA | 107 ± 22 | 96.6 ± 19 | 96.1 ± 9 | 101 ± 10
5 | UCGUGGCACAUGUAAACCAAA | 16.1 ± 2 | 28.9 ± 1.9 | 17.3 ± 1.2 | 18.9 ± 5.3
6 | UCCUUCAACAUGUAAACCAAA | 77 ± 8.2 | 84 ± 1.1 | 78 ± 5.2 | 93.7 ± 15
7 | UGGUCUUACAUGUAAACCAAA | 29.79 ± 0.16 | 89.9 ± 17 | 14 ± 2 | 90.9 ± 14
8 | UGCACUCACAUGUAAACCAAA | 60.7 ± 5.6 | 22.6 ± 13 | 40.6 ± 5.6 | 29.5 ± 11
9 | UGAAUUGACAUGUAAACCAAA | 59.6 ± 5.4 | 40.9 ± 1.7 | 71 ± 7.1 | 96.1 ± 14
10 | UCCCAAUACAUGUAAACCAAA | 67.4 ± 11 | 64.6 ± 10 | 94.8 ± 11 | 100 ± 33
11 | UGGCCGAACAUGUAAACCAAA | 33.6 ± 0.8 | 33 ± 2.8 | 16.5 ± 1.9 | 65.1 ± 7.2
12 | UUUAAGGACAUGUAAACCAAA | 81.2 ± 6 | 91.7 ± 14 | 92.9 ± 6.6 | 99.4 ± 1.8
13 | UCAACUGACAUGUAAACCAAA | 67.2 ± 12 | 67.2 ± 3.5 | 81 ± 1.9 | 94.6 ± 14
14 | UUUAAAGACAUGUAAACCAAA | 87.8 ± 6.3 | 73.4 ± 8.3 | 99.4 ± 8.8 | 104 ± 2.6
15 | UAAUGGCACAUGUAAACCAAA | 62.6 ± 8.1 | 9.8 ± 6.3 | 38.5 ± 3.5 | 15.6 ± 1.8
16 | UCAGGGUACAUGUAAACCAAA | 28.7 ± 5.9 | 11.1 ± 2.9 | 18.9 ± 0.22 | 32.5 ± 10
17 | UCACUCAACAUGUAAACCAAA | 45.6 ± 13 | 69.8 ± 9.7 | 83.4 ± 4.6 | 94.5 ± 10
18 | UGAGAUAACAUGUAAACCAAA | 96.3 ± 9.4 | 32.2 ± 8.3 | 103 ± 4 | 101 ± 17
19 | UUCUUGCACAUGUAAACCAAA | 77.9 ± 10 | 36.7 ± 5.1 | 21.8 ± 0.4 | 70.5 ± 2.9
20 | UUUAUCAACAUGUAAACCAAA | 67 ± 1.7 | 87.1 ± 7.6 | 101 ± 6.3 | 99.8 ± 7.4
21 | UAUCAUCACAUGUAAACCAAA | 36.9 ± 3 | 62.5 ± 4.8 | 56.4 ± 1.9 | 20.6 ± 2.8
22 | UUAUUAAACAUGUAAACCAAA | 69 ± 9.8 | 110 ± 18 | 92.8 ± 5.7 | 72.6 ± 10
23 | UGGGUAUACAUGUAAACCAAA | 37.6 ± 3.8 | 29 ± 4.4 | 24.5 ± 3 | 54.8 ± 9.3
24 | UUCAAAUACAUGUAAACCAAA | 64.3 ± 3.2 | 84.1 ± 14 | 77.7 ± 13 | 95.8 ± 15
25 | UGCCCUUACAUGUAAACCAAA | 67 ± 9.9 | 18.5 ± 4.9 | 31.4 ± 5.5 | 29 ± 2.3
26 | UGCUUGCACAUGUAAACCAAA | 44.9 ± 3.4 | 35.3 ± 17 | 25.6 ± 1.1 | 23.4 ± 5.9
27 | UGAUAAAACAUGUAAACCAAA | 71.6 ± 12 | 86.7 ± 10 | 83.5 ± 8.1 | 94.2 ± 13
28 | UGGCCGUACAUGUAAACCAAA | 28.1 ± 3.7 | 7.15 ± 5.8 | 7.4 ± 0.44 | 36 ± 1.5
29 | UCUAGGCACAUGUAAACCAAA | 35.7 ± 3.3 | 23.3 ± 4 | 28.9 ± 0.84 | 86.3 ± 7.3
30 | UUUCAAGACAUGUAAACCAAA | 51.9 ± 5.7 | 67.4 ± 2.2 | 93.6 ± 2.8 | 93.2 ± 3.5
